Enrichment score data for 19 molecules are collected here from the supplement of paper PMC10369915.

The list shows a part of the results. Cut-off read from the data, not from the text of the source: active = 3.2 or more and inactive = the rest. Only a few entries rise above the background.
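Note: displayed peptides selected on beads carrying the immobilized SH2 domain, with library peptides lacking any tyrosine serving as negative controls.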

One assay addresses SHP2 C-SH2 domain E139D. Description: enrichment score (SH2-bound / input frequency) (ratio); bacterial display of known human phosphotyrosine sites (pTyr-Var adds point mutants) read by sequencing; higher = stronger binding; tyrosines were phosphorylated by kinases first. The conditions noted are these: peptide library: pTyr-Var.
For the molecule ARGMEYLASKN [FGFR1_Y613_K618N], the enrichment score is inactive: 0.529.
Same read-out and setting: the result for INNIDYYKNTT [FGFR2_Y656_K659N] reads inactive: 1.31.
Regarding LGGSPYPSVPV [FGFR1_Y701_G703S], the enrichment score was inactive: 1.47.
Same read-out and setting: the result for LVSCTYQLARG [FGFR2_Y608] reads inactive: 0.873; that for LVSCTYQLATG [FGFR2_Y608_R612T], inactive: 0.993.
Turning to ISGGGYRARPA [FGB_Y71], the enrichment score is inactive: 0.531.
Same read-out and setting: the same measure for KPFRVYCDMNT [FGB_Y269_YF]: inactive: 0.669; for IHHIDYFKETT [FGFR1_Y653_K656E_YF]: inactive: 1.26.
In the case of INNIDYFKNTT [FGFR2_Y656_K659N_YF], the enrichment score is inactive: 1.1.
The same measure, in the same setting: the same measure for LVSCAYQVARG [FGFR1_Y605]: inactive: 0.839; for WKESWYSMRKM [FGB_Y475_G472E]: inactive: 1.15.
Still for that read-out and setting: the same measure for FASALYRQRRS [FGF11_Y162_YF]: inactive: 0.211; for PHQTIYSALMI [FGF23_Y70]: inactive: 0.571.
Take FMYKVYSDPQP [FGFR1_Y280_C277Y]: the enrichment score was inactive: 0.611.
Same read-out and setting: the result for NETNKYQISVN [FGB_Y368_A365T] reads inactive: 1.03; that for WKGSWYSMKKM [FGB_Y475_R478K], inactive: 1.73; that for TSNQEYLFLSM [FGFR1_Y766_D768Y_YF], inactive: 0.74.
Same read-out and setting: the same measure for TRSYDYMEGGD [FGF7_Y58]: inactive: 0.637; for GFKVRYATGSI [FGFR1_Y210_W213G_YF]: inactive: 1.29.

The next assay addresses SHP2 C-SH2 domain wild-type. The assay is described as above. The following applies: peptide library: pTyr-Var.
Regarding ARGMEYLASKN [FGFR1_Y613_K618N], the enrichment score is inactive: 0.57.
Still for that read-out and setting: the result for INNIDYYKNTT [FGFR2_Y656_K659N] reads inactive: 0.804; that for LGGSPYPSVPV [FGFR1_Y701_G703S], inactive: 0.707.
For the molecule LVSCTYQLARG [FGFR2_Y608], the enrichment score was inactive: 0.91.
On the same count and under the same terms, the result for LVSCTYQLATG [FGFR2_Y608_R612T] reads inactive: 1.37; that for ISGGGYRARPA [FGB_Y71], inactive: 0.435; that for KPFRVYCDMNT [FGB_Y269_YF], inactive: 0.921.
On the same count and under the same terms, the result for IHHIDYFKETT [FGFR1_Y653_K656E_YF] reads inactive: 0.93; that for INNIDYFKNTT [FGFR2_Y656_K659N_YF], inactive: 0.702.
Same read-out and setting: the same measure for LVSCAYQVARG [FGFR1_Y605]: inactive: 1.02; for WKESWYSMRKM [FGB_Y475_G472E]: inactive: 1.12; for FASALYRQRRS [FGF11_Y162_YF]: inactive: 0.406.
As for PHQTIYSALMI [FGF23_Y70], the enrichment score was inactive: 0.688.
Still for that read-out and setting: the same measure for FMYKVYSDPQP [FGFR1_Y280_C277Y]: inactive: 0.479.
Still for that read-out and setting: the same measure for NETNKYQISVN [FGB_Y368_A365T]: inactive: 0.753.
Same read-out and setting: the same measure for WKGSWYSMKKM [FGB_Y475_R478K]: inactive: 1.64; for TSNQEYLFLSM [FGFR1_Y766_D768Y_YF]: inactive: 0.827.
With TRSYDYMEGGD [FGF7_Y58], the enrichment score was inactive: 0.566.
Still for that read-out and setting: the same measure for GFKVRYATGSI [FGFR1_Y210_W213G_YF]: inactive: 1.07.

A further assay has as its target SHP2 N-SH2 domain L43F. Described as above. The conditions noted are these: peptide library: pTyr-Var.
In the case of ARGMEYLASKN [FGFR1_Y613_K618N], the enrichment score is inactive: 0.561.
Still for that read-out and setting: the same measure for INNIDYYKNTT [FGFR2_Y656_K659N]: inactive: 1.05; for LGGSPYPSVPV [FGFR1_Y701_G703S]: inactive: 0.831; for LVSCTYQLARG [FGFR2_Y608]: inactive: 0.676.
On the same count and under the same terms, the same measure for LVSCTYQLATG [FGFR2_Y608_R612T]: inactive: 1.08; for ISGGGYRARPA [FGB_Y71]: inactive: 0.502; for KPFRVYCDMNT [FGB_Y269_YF]: inactive: 0.962.
Same read-out and setting: the result for IHHIDYFKETT [FGFR1_Y653_K656E_YF] reads inactive: 1.07; that for INNIDYFKNTT [FGFR2_Y656_K659N_YF], inactive: 0.94; that for LVSCAYQVARG [FGFR1_Y605], inactive: 1.16.
As for WKESWYSMRKM [FGB_Y475_G472E], the enrichment score was inactive: 1.04.
Same read-out and setting: the result for FASALYRQRRS [FGF11_Y162_YF] reads inactive: 0.227; that for PHQTIYSALMI [FGF23_Y70], inactive: 0.451; that for FMYKVYSDPQP [FGFR1_Y280_C277Y], inactive: 0.699.
The same measure, in the same setting: the same measure for NETNKYQISVN [FGB_Y368_A365T]: inactive: 0.823.
On to WKGSWYSMKKM [FGB_Y475_R478K], for which the enrichment score was inactive: 1.81.
Same read-out and setting: the same measure for TSNQEYLFLSM [FGFR1_Y766_D768Y_YF]: inactive: 0.765; for TRSYDYMEGGD [FGF7_Y58]: inactive: 0.553.
Still for that read-out and setting: the same measure for GFKVRYATGSI [FGFR1_Y210_W213G_YF]: inactive: 1.27.

Another assay deals with SHP2 N-SH2 domain T42A. Described as above. The following applies: peptide library: pTyr-Var.
As to ARGMEYLASKN [FGFR1_Y613_K618N], the enrichment score is inactive: 0.49.
Still for that read-out and setting: the same measure for INNIDYYKNTT [FGFR2_Y656_K659N]: inactive: 0.716; for LGGSPYPSVPV [FGFR1_Y701_G703S]: inactive: 0.649.
On the same count and under the same terms, the result for LVSCTYQLARG [FGFR2_Y608] reads inactive: 0.756; that for LVSCTYQLATG [FGFR2_Y608_R612T], inactive: 0.639; that for ISGGGYRARPA [FGB_Y71], inactive: 0.505.
In the case of KPFRVYCDMNT [FGB_Y269_YF], the enrichment score is inactive: 0.78.
Still for that read-out and setting: the result for IHHIDYFKETT [FGFR1_Y653_K656E_YF] reads inactive: 0.916; that for INNIDYFKNTT [FGFR2_Y656_K659N_YF], inactive: 0.819.
For LVSCAYQVARG [FGFR1_Y605], the enrichment score is inactive: 0.789.
On the same count and under the same terms, the same measure for WKESWYSMRKM [FGB_Y475_G472E]: inactive: 0.943.
The same measure, in the same setting: the same measure for FASALYRQRRS [FGF11_Y162_YF]: inactive: 0.239; for PHQTIYSALMI [FGF23_Y70]: inactive: 0.678.
On the same count and under the same terms, the same measure for FMYKVYSDPQP [FGFR1_Y280_C277Y]: inactive: 0.447; for NETNKYQISVN [FGB_Y368_A365T]: inactive: 0.689.
Consider WKGSWYSMKKM [FGB_Y475_R478K], for which the enrichment score was inactive: 1.81.
On the same count and under the same terms, the result for TSNQEYLFLSM [FGFR1_Y766_D768Y_YF] reads inactive: 0.618.
On the same count and under the same terms, the same measure for TRSYDYMEGGD [FGF7_Y58]: inactive: 0.444; for GFKVRYATGSI [FGFR1_Y210_W213G_YF]: inactive: 1.05.

Another assay concerns the target SHP2 N-SH2 domain T52S. The assay is described as above. The following applies: peptide library: pTyr-Var.
As for ARGMEYLASKN [FGFR1_Y613_K618N], the enrichment score was inactive: 0.502.
Still for that read-out and setting: the same measure for INNIDYYKNTT [FGFR2_Y656_K659N]: inactive: 0.874; for LGGSPYPSVPV [FGFR1_Y701_G703S]: inactive: 0.8.
On the same count and under the same terms, the same measure for LVSCTYQLARG [FGFR2_Y608]: inactive: 0.677; for LVSCTYQLATG [FGFR2_Y608_R612T]: inactive: 0.897.
ISGGGYRARPA [FGB_Y71]: the enrichment score was inactive: 0.551.
Still for that read-out and setting: the same measure for KPFRVYCDMNT [FGB_Y269_YF]: inactive: 0.803; for IHHIDYFKETT [FGFR1_Y653_K656E_YF]: inactive: 1.16; for INNIDYFKNTT [FGFR2_Y656_K659N_YF]: inactive: 1.03.
Same read-out and setting: the result for LVSCAYQVARG [FGFR1_Y605] reads inactive: 0.802.
Still for that read-out and setting: the same measure for WKESWYSMRKM [FGB_Y475_G472E]: inactive: 1.08.
Consider FASALYRQRRS [FGF11_Y162_YF], for which the enrichment score is inactive: 0.204.
On the same count and under the same terms, the result for PHQTIYSALMI [FGF23_Y70] reads inactive: 0.395; that for FMYKVYSDPQP [FGFR1_Y280_C277Y], inactive: 0.531.
Same read-out and setting: the same measure for NETNKYQISVN [FGB_Y368_A365T]: inactive: 0.838.
WKGSWYSMKKM [FGB_Y475_R478K]: the enrichment score was inactive: 1.86.
Still for that read-out and setting: the same measure for TSNQEYLFLSM [FGFR1_Y766_D768Y_YF]: inactive: 0.847; for TRSYDYMEGGD [FGF7_Y58]: inactive: 0.499.
Take GFKVRYATGSI [FGFR1_Y210_W213G_YF]: the enrichment score was inactive: 1.27.

Another assay has as its target SHP2 N-SH2 domain wild-type. The description is as above. The conditions noted are these: peptide library: pTyr-Var.
In the case of ARGMEYLASKN [FGFR1_Y613_K618N], the enrichment score was inactive: 0.569.
Same read-out and setting: the result for INNIDYYKNTT [FGFR2_Y656_K659N] reads inactive: 0.993; that for LGGSPYPSVPV [FGFR1_Y701_G703S], inactive: 0.772.
Same read-out and setting: the same measure for LVSCTYQLARG [FGFR2_Y608]: inactive: 1.11; for LVSCTYQLATG [FGFR2_Y608_R612T]: inactive: 1.34.
Same read-out and setting: the result for ISGGGYRARPA [FGB_Y71] reads inactive: 0.571; that for KPFRVYCDMNT [FGB_Y269_YF], inactive: 1.1; that for IHHIDYFKETT [FGFR1_Y653_K656E_YF], inactive: 0.953.
Consider INNIDYFKNTT [FGFR2_Y656_K659N_YF], for which the enrichment score was inactive: 0.836.
On the same count and under the same terms, the same measure for LVSCAYQVARG [FGFR1_Y605]: inactive: 1.24; for WKESWYSMRKM [FGB_Y475_G472E]: inactive: 1.46.
The same measure, in the same setting: the result for FASALYRQRRS [FGF11_Y162_YF] reads inactive: 0.24.
Still for that read-out and setting: the same measure for PHQTIYSALMI [FGF23_Y70]: inactive: 0.568; for FMYKVYSDPQP [FGFR1_Y280_C277Y]: inactive: 0.662; for NETNKYQISVN [FGB_Y368_A365T]: inactive: 0.52.
As to WKGSWYSMKKM [FGB_Y475_R478K], the enrichment score is inactive: 1.53.
For TSNQEYLFLSM [FGFR1_Y766_D768Y_YF], the enrichment score is inactive: 0.709.
In the case of TRSYDYMEGGD [FGF7_Y58], the enrichment score is inactive: 0.577.
The same measure, in the same setting: the result for GFKVRYATGSI [FGFR1_Y210_W213G_YF] reads inactive: 1.03.
